From publication PMC4336329 (PLoS ONE, 2015)
The whole screen tested about 310,000 compounds, of which about 14,000 (4.5%) showed an effect of 50% or more. The effect is printed as a negative number. This is one part of the list.

Target: human ether-à-go-go-related gene (hERG) potassium channel (human, UniProt Q12809)
Test: primary screen, population patch clamp on CHO cells stably expressing hERG
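Note: peak tail current of the secondary pulse compared with the same well before compound.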

Chain of human ether-à-go-go-related gene (hERG) potassium channel (Q12809 whole entry, looked up): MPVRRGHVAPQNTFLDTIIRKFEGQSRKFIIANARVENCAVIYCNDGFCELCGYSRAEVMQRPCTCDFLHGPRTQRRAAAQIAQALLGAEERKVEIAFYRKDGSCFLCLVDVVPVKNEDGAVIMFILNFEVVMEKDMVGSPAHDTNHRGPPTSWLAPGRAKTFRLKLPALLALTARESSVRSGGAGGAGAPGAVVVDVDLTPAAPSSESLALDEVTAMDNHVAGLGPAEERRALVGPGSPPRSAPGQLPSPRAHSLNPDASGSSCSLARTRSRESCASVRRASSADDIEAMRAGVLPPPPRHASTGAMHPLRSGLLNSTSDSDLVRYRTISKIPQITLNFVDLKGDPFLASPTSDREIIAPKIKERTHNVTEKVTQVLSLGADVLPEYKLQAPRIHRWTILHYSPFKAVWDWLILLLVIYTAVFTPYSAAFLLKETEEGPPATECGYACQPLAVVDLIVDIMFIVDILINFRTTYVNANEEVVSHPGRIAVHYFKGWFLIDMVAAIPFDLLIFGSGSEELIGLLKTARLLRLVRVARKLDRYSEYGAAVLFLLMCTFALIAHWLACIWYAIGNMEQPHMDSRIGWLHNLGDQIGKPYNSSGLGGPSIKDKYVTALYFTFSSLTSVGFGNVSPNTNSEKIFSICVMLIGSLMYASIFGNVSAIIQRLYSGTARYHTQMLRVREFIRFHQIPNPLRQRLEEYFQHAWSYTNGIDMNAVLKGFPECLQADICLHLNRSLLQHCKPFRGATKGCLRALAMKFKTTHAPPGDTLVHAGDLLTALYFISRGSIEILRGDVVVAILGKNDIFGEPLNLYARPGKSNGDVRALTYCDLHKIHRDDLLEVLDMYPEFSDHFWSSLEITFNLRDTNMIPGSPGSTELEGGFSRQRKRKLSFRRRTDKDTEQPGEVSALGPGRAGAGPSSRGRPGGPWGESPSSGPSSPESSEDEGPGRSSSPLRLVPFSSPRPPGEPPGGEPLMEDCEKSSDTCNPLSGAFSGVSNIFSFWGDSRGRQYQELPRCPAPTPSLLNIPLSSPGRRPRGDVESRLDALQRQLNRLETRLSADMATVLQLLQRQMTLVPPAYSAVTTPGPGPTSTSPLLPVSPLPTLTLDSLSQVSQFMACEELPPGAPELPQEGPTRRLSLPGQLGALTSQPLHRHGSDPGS

**Q.** Which “hERG current change (%, negative = inhibition) at 10uM” value does the source give for `COc1ccc(-n2c(C)cc(C(=O)COC(=O)Cc3n[nH]c(=O)c4ccccc34)c2C)cc1` here?
**A.** -7.36%

**Q.** Which “hERG current change (%, negative = inhibition) at 10uM” value does the source give for `O=C1CN(C(=O)COc2c(F)c(F)cc(F)c2F)c2ccccc2N1` here?
**A.** 0.479%

**Q.** With `CC(C)OC(=O)CSc1nnc(-c2cccnc2)n1N` as the molecule, how does the “hERG current change (%, negative = inhibition) at 10uM” value read?
**A.** 4.9%

**Q.** `CCNC(=S)N/N=C/c1sccc1C` was tested. Which “hERG current change (%, negative = inhibition) at 10uM” value did it give?
**A.** 14.7%

**Q.** With `COCCN(CCOC)C(=O)CSc1ccc(S(=O)(=O)N2CCN(C)CC2)cn1` as the molecule, how does the “hERG current change (%, negative = inhibition) at 10uM” value read?
**A.** 0.802%

**Q.** Which “hERG current change (%, negative = inhibition) at 10uM” value does the source give for `COc1cc(NC(=S)N2CCOCC2)c(OC)cc1Cl` here?
**A.** 18.9%

**Q.** How did the “hERG current change (%, negative = inhibition) at 10uM” value turn out when `O=C(NCC(=O)N(c1ccccc1)C(C(=O)NC1CCCC1)c1ccncc1)c1ccco1` (stereo not shown) was run?
**A.** -6.21%

**Q.** For `CCOC(=O)c1nn(-c2ccc(OCC)cc2)c2nc(-c3cccc(OC)c3)c(C#N)c(=O)n12`, which “hERG current change (%, negative = inhibition) at 10uM” value is on record?
**A.** 2.83%

**Q.** How did the “hERG current change (%, negative = inhibition) at 10uM” value turn out when `CN(C(=O)CCc1nnc(-c2ccc(-c3ccccc3)cc2)o1)C1CCOCC1` was run?
**A.** -25.8%

**Q.** `CCN(CC)CCNC(=O)c1ccc(NC(=O)Cc2cccc3ccccc23)cc1` was tested. Which “hERG current change (%, negative = inhibition) at 10uM” value did it give?
**A.** -24%

**Q.** For `CCOc1ccc(NC(=O)CN(C)S(=O)(=O)c2cnc[nH]2)cc1`, which “hERG current change (%, negative = inhibition) at 10uM” value is on record?
**A.** 46%

**Q.** Which “hERG current change (%, negative = inhibition) at 10uM” value does the source give for `O=C(NCCc1c[nH]c2ccccc12)/C(=C\c1cccnc1)NC(=O)c1cccs1` here?
**A.** -17%

**Q.** How did the “hERG current change (%, negative = inhibition) at 10uM” value turn out when `CN1CCC(N(C)c2nc(-c3ccccc3)nc3ccccc23)CC1` was run?
**A.** -70.4%

**Q.** For `CCN(CC(=O)Nc1ccccc1C(F)(F)F)C(=O)c1cc(-c2ccccc2)nn1-c1ccccc1`, which “hERG current change (%, negative = inhibition) at 10uM” value is on record?
**A.** 3.79%

**Q.** How did the “hERG current change (%, negative = inhibition) at 10uM” value turn out when `CCOC(=O)/C(C#N)=C\C1=C(N2CCCC2)CC(C)(C)OC1` was run?
**A.** -2.21%

**Q.** With `CS(=O)(=O)N1N=C(c2ccco2)CC1c1ccc(Br)cc1` (stereo not shown) as the molecule, how does the “hERG current change (%, negative = inhibition) at 10uM” value read?
**A.** 7.34%

**Q.** For `Cc1ccc(OCc2ccc(C(=O)Nc3nc4ccccc4n3Cc3ccccc3)o2)c([N+](=O)[O-])c1`, which “hERG current change (%, negative = inhibition) at 10uM” value is on record?
**A.** 11.2%

**Q.** Which “hERG current change (%, negative = inhibition) at 10uM” value does the source give for `Cc1ccccc1OCC(=O)Nc1ccc(S(=O)(=O)N2CCCC2)cc1` here?
**A.** -3.76%

**Q.** How did the “hERG current change (%, negative = inhibition) at 10uM” value turn out when `Cc1cc(C)nc(NS(=O)(=O)c2ccc(NC(=O)Nc3ccccc3F)cc2)n1` was run?
**A.** 7.97%

**Q.** `CC(C)(CO)CNC1CCCN(C2Cc3ccccc3C2)C1` (stereo not shown) was tested. Which “hERG current change (%, negative = inhibition) at 10uM” value did it give?
**A.** 9.44%

**Q.** How did the “hERG current change (%, negative = inhibition) at 10uM” value turn out when `COC(=O)[C@@H]1C[C@]2(Br)c3ccccc3N(S(=O)(=O)c3ccccc3)[C@@H]2N1C(=O)OC` was run?
**A.** -4.6%

**Q.** With `CCOc1cc(NC(=S)NCC2CCCO2)c(OCC)cc1NC(=O)CC(C)C` (stereo not shown) as the molecule, how does the “hERG current change (%, negative = inhibition) at 10uM” value read?
**A.** 11%

**Q.** With `CN(C)CCNC(=O)Cc1ccc([N+](=O)[O-])cc1` as the molecule, how does the “hERG current change (%, negative = inhibition) at 10uM” value read?
**A.** 4.05%

**Q.** `CSC(=Nc1ccccc1)Nc1ccccc1` was tested. Which “hERG current change (%, negative = inhibition) at 10uM” value did it give?
**A.** -15.8%

**Q.** For `CC(=O)c1c(OCC(=O)O)ccc2c(C)cc(=O)oc12`, which “hERG current change (%, negative = inhibition) at 10uM” value is on record?
**A.** -5.37%

**Q.** `O=C(Nc1nccs1)C1CCN(S(=O)(=O)c2ccc(F)cc2)CC1` was tested. Which “hERG current change (%, negative = inhibition) at 10uM” value did it give?
**A.** 2.1%

**Q.** `CCOC(=O)c1c(C)[nH]c(C)c1C(=O)COC(=O)c1ccc(S(=O)(=O)C(F)F)cc1` was tested. Which “hERG current change (%, negative = inhibition) at 10uM” value did it give?
**A.** -40.2%

**Q.** Which “hERG current change (%, negative = inhibition) at 10uM” value does the source give for `O=C(O)CCCC(=O)Nc1ccccc1-n1ccnc1` here?
**A.** 5.42%

**Q.** With `CCC(C)(C)NC(=O)C(c1cccnc1)N(C(=O)c1csnn1)c1ccccc1` (stereo not shown) as the molecule, how does the “hERG current change (%, negative = inhibition) at 10uM” value read?
**A.** -22.7%

**Q.** How did the “hERG current change (%, negative = inhibition) at 10uM” value turn out when `Cn1cc(C(=O)N/N=C/c2cccc([N+](=O)[O-])c2)c2ccccc21` was run?
**A.** 14.7%

**Q.** For `Cc1cc(=O)[nH]c(Nc2cccc(F)c2)n1`, which “hERG current change (%, negative = inhibition) at 10uM” value is on record?
**A.** 16.2%

**Q.** For `O=C1c2ccccc2NC(c2ccc(-c3cccc(F)c3)o2)N1O` (stereo not shown), which “hERG current change (%, negative = inhibition) at 10uM” value is on record?
**A.** 0.38%

**Q.** Which “hERG current change (%, negative = inhibition) at 10uM” value does the source give for `Cc1ccc(-n2c(C)nnc2SCC(=O)N2CCc3ccccc3C2)cc1` here?
**A.** -53.3%

**Q.** For `CCOc1ccc(NC(=O)Cn2c(=O)oc3ccccc32)cc1`, which “hERG current change (%, negative = inhibition) at 10uM” value is on record?
**A.** 4.89%

**Q.** How did the “hERG current change (%, negative = inhibition) at 10uM” value turn out when `COc1ccc(Cl)cc1-c1n[nH]c(=S)n1C` was run?
**A.** 0.65%

**Q.** Which “hERG current change (%, negative = inhibition) at 10uM” value does the source give for `O=C(CCSCc1ccccc1Cl)NCc1cccs1` here?
**A.** -22.4%

**Q.** For `Nc1ccncc1N`, which “hERG current change (%, negative = inhibition) at 10uM” value is on record?
**A.** 21.9%

**Q.** How did the “hERG current change (%, negative = inhibition) at 10uM” value turn out when `CC(=O)Nc1ccc(S(=O)(=O)NNC(=O)c2ccc3c(c2)OCO3)cc1` was run?
**A.** 15.1%

**Q.** Which “hERG current change (%, negative = inhibition) at 10uM” value does the source give for `CC1CC(C)CN(S(=O)(=O)c2ccc(NC(=O)CCNC(=O)c3ccc([N+](=O)[O-])cc3)cc2)C1` (stereo not shown) here?
**A.** -2.29%

**Q.** How did the “hERG current change (%, negative = inhibition) at 10uM” value turn out when `c1cnc2c(C3NCCc4c3[nH]c3ccccc43)cccc2c1` (stereo not shown) was run?
**A.** -36%

**Q.** How did the “hERG current change (%, negative = inhibition) at 10uM” value turn out when `CCOC(=O)C1CCCN(C(=O)Cn2cnc3sc(C)c(S(=O)(=O)N4CCOCC4)c3c2=O)C1` (stereo not shown) was run?
**A.** -3.33%

**Q.** For `O=C(O)C1CCCCC1C(=O)NCc1cn2ccccc2n1` (stereo not shown), which “hERG current change (%, negative = inhibition) at 10uM” value is on record?
**A.** 20.2%

**Q.** With `Cc1cc(-c2nnc(SCC(=O)Nc3ccc(F)cc3)n2N)n[nH]1` as the molecule, how does the “hERG current change (%, negative = inhibition) at 10uM” value read?
**A.** 9.53%
